We go through 3 proteins from paper PMC5519287 (Cell reports, 2017).

The stoichiometry N is a count of units in the complex or per binding partner.

First the molecules themselves.
B1: EGFP-S1C (wt) (domain or fragment)
chain: not shown
B2: EGFP-S1C R429C (domain or fragment)
chain: not shown
B3: EGFP-S1C F394H (domain or fragment)
chain: not shown

The data set concerns the molecule itself. Nature of the data set: single molecule analysis.
B1: the “stoichiometry N” value amounted to 2.

As for B2, the “stoichiometry N” value came to 2.

Consider B3, for which the “stoichiometry N” value stood at 2.
